PubChem BioAssay AID1986 (Sanford-Burnham Center for Chemical Genomics, 2009)
The list shows a part of the results. Shown are side measurements of this screen, not its main read-out; they come without a call.

Assay: cell-free HIV fusion peptide-binding blockers – biochemical, uHTS, fluorescence dequenching, primary screen (AID 1986)
Conditions: 30 min, measured here: repeat confirmation average inhibition, at 18.6 µM, stronger effect = higher value

Structure (SMILES) | inhibition [%]
O=C(O)c1[nH]c2ccccc2c1C(c1c(F)cccc1Cl)c1c(C(=O)O)[nH]c2ccccc12 | 56.9
CCc1ccc(S(=O)(=O)/N=C2\C=C(NS(=O)(=O)c3ccccc3)C(=O)c3ccccc32)cc1 | 71.8
Cc1ccc(C)c(S(=O)(=O)/N=C2\C=C(NS(=O)(=O)c3ccccc3)C(=O)c3ccccc32)c1 | 69.1
O=C(O)COc1ccc(/C=N/NC(=O)c2ccc(-c3csc(Nc4ccc(Cl)cc4)n3)cc2)cc1 | 52.2
CN1C(=O)/C(=C/c2ccc(C(=O)Nc3ccc(O)cc3C(=O)O)cc2)SC1=S | 71.5
Cc1ccc(/C=C2\SC(=S)N(CCCC(=O)Nc3ccccc3C(=O)O)C2=O)cc1 | 53.4
CCOC(=O)C1=C(C)N=c2s/c(=C/c3ccc(OCC(=O)O)cc3)c(=O)n2C1c1ccc(SC)cc1 (stereo not drawn) | 65.1
CC(=O)Nc1sc(/C(C#N)=C/c2ccc(Cl)c(Cl)c2)nc1-c1ccc(C)cc1 | 176
COc1cc(OC)c2c(O)c3c(c(-c4c5c(c(O)c6c(OC)cc(OC)cc46)CO[C@@H](C)[C@H]5O)c2c1)[C@H](O)[C@H](C)OC3 | 83.6
Oc1c(Cl)cc(Cl)c(Cl)c1Cc1c(O)c(Cl)cc(Cl)c1Cl | 71.1
Cc1cc(N2C(=O)C(O)=C(C(=O)c3ccc(C)o3)C2c2cccc(Oc3ccccc3)c2)no1 (stereo not drawn) | 51.4
COc1cc([N+](=O)[O-])cc(/C=N/NC(=O)c2cc(-c3ccccc3)nc3ccccc23)c1O | 54.4
CC1=C(C(=O)Nc2ccccc2)C(c2ccc(Cl)cc2)n2c(s/c(=C/c3cccc(OCC(=O)O)c3)c2=O)=N1 (stereo not drawn) | 60.5
Cc1ccc(-n2c(O)c(C=Nc3ccccc3-c3n[nH]c(=S)[nH]c3=O)c3ccccc3c2=O)c(C)c1 | 56.3
O=C(O)c1cc(-c2ccc(/C=N/Nc3ccc(Cl)cc3)o2)ccc1Cl | 54.7
CS(=O)(=O)C1=NSC2=NC(=O)/C(=C\c3cccn3-c3ccc(Cl)cc3)C(=N)N21 | 69.9
CCOC(=O)C1=C(C)N=c2s/c(=C\c3ccc(OCC(=O)O)cc3)c(=O)n2C1c1ccc(Cl)cc1 (stereo not drawn) | 63.5
COc1ccc(-c2coc3c(C)c4oc(=O)c(CCC(=O)O)c(C)c4cc23)cc1 | 51.8
COc1cc(/C=C2/SC(=S)N(Cc3ccccc3)C2=O)ccc1OCC(=O)O | 76.1
CC1=C(C(=O)OC(C)C)C(c2ccc(Cl)cc2)n2c(s/c(=C\c3ccc(OCC(=O)O)cc3)c2=O)=N1 (stereo not drawn) | 54.6
COc1cc(/C=C2\SC(=O)N(CC(=O)Nc3cccc(C)c3)C2=O)cc([N+](=O)[O-])c1O | 69.9

Structure (SMILES) | inhibition [%]
Cc1cc(/C=C2/C(=N)N3C(=NC2=O)SN=C3S(C)(=O)=O)c(C)n1-c1ccccc1 | 50.4
O=C(N/N=C/c1ccc(-c2ccc(S(=O)(=O)Nc3ncccn3)cc2)o1)c1cc2ccccc2cc1O | 79.8
Cc1ccc(NS(=O)(=O)c2ccc(N/N=C/c3ccccc3OCC(=O)O)c([N+](=O)[O-])c2)c(C)c1 | 81.5
Cc1ccc(-n2cccc2/C=C2/C(=N)N3C(=NC2=O)SN=C3S(C)(=O)=O)cc1Cl | 90.3
COc1cc(/C=C2/SC(=S)NC2=O)ccc1OS(=O)(=O)c1ccc(C)cc1 | 75
O=C(Nc1ccccc1Cc1ccccc1)c1ccccc1NS(=O)(=O)c1ccc(Cl)s1 | 70.6
O=C(O)COc1ccccc1/C=N/Nc1ccc(S(=O)(=O)Nc2ccc(Cl)cc2)cc1[N+](=O)[O-] | 81
C/C(=N\Nc1ccc(C(=O)O)cc1)c1ccc2c(c1)Nc1ccccc1S2 | 73.7
CSc1nnc(-c2ccccc2N=Cc2c(C)[nH]n(-c3ccc4ccccc4c3)c2=O)c(=O)[nH]1 | 54.2
O=C(O)CSCC(=O)N(Cc1ccccc1)c1nc(-c2ccccc2)c(-c2ccccc2)s1 | 82.8
CCc1ccc(N=C2NC(=O)/C(=C/c3cc(Br)c(OCC(=O)O)c(OC)c3)S2)cc1 | 69.3
O=C(O)CN1C(=O)/C(=C\c2cn(-c3ccccc3)nc2-c2ccccc2)SC1=S | 55.7
COCCN1C(=O)/C(=C/c2ccc(OCc3ccc(C(=O)O)cc3)c(OC)c2)SC1=Nc1ccccc1 | 66.3
CC(C)(C)c1cc(-c2csc(Nc3ccccc3)[n+]2Cc2ccc(C(=O)O)cc2)cc(C(C)(C)C)c1O | 84.1
O=C(N/N=C/c1cc(Cl)cc([N+](=O)[O-])c1O)NC12CC3CC(CC(C3)C1)C2 | 56.8
O=C(O)c1cc(N2N=C(C(F)(F)F)/C(=C/C=C/c3ccco3)C2=O)ccc1Cl | 66.9
CC(C)CS(=O)(=O)C1=NSC2=NC(=O)/C(=C\c3ccc(OC(=O)c4ccco4)cc3)C(=N)N21 | 70.8
Cc1ccc(NC(=O)COc2cccc(/C=C3\SC(=S)N(CCC(=O)O)C3=O)c2)cc1Cl | 76.3
CCCOc1ccc(C(=O)NNC(=S)NC(=O)c2cc(-c3ccc(Cl)cc3)nc3ccccc23)cc1 | 68.6
COc1ccc(O)c(C(=O)c2cc(SCC(=O)O)c3nc4sc5c(c4c(=O)n3c2)CCCC5)c1 | 70.7
CC(C)(C)c1ccc(S(=O)(=O)/N=C2\C=C(NS(=O)(=O)c3ccccc3)C(=O)c3ccccc32)cc1 | 60.4

Structure (SMILES) | inhibition [%]
O=C1N/C(=N\S(=O)(=O)c2ccccc2)S/C1=C\c1cc([N+](=O)[O-])ccc1O | 82.9
COc1cc(/C=C2\SC(=Nc3ccccc3)N(CCc3c[nH]c4ccccc34)C2=O)ccc1OC(C)C(=O)O (stereo not drawn) | 80.9
COc1ccc(C(=O)/C=C/c2cccc(OCc3ccccc3)c2)cc1CSCC(=O)O | 54.9
Cc1ccc(S(=O)(=O)/N=C2/NC(=O)/C(=C/c3cc([N+](=O)[O-])ccc3O)S2)cc1 | 93.6
COc1cccc(-c2coc3c(C)c4oc(=O)c(CCC(=O)O)c(C)c4cc23)c1 | 60.2
Cc1ccc(Cl)cc1N1CCN(C(=O)Cc2c(C(=O)O)[nH]c3ccc(Cl)cc23)CC1 | 60.9
O=C(O)CSc1cc(C(=O)c2ccccc2O)cn2c(=O)c3c4c(sc3nc12)CCCC4 | 61.4
O=C(O)c1ccc(Cl)c(S(=O)(=O)Nc2ccccc2C(=O)Nc2ccc(Cl)cc2)c1 | 54.5
CC(Oc1ccc(Cl)cc1Cl)C(=O)Nc1ccc(S(=O)(=O)Nc2cnc3ccccc3n2)cc1 (stereo not drawn) | 67.4
CCn1nc([N+](=O)[O-])c(C(C#N)c2nc3cc(C(F)(F)F)ccc3s2)c(Cl)c1=O (stereo not drawn) | 79.6
COc1cccc(OCCOc2ccc(/C=C3\C(=N)N4N=C(S(C)(=O)=O)SC4=NC3=O)cc2OC)c1 | 79.2
CCOc1cc(/C=C2\SC(=O)N(CC(=O)Nc3ccccc3F)C2=O)cc([N+](=O)[O-])c1O | 67.8
COC(=O)c1sc(-c2ccc(C(C)(C)C)cc2)cc1NC(=O)c1ccccc1C(=O)O | 64.3
CCN1C(=O)/C(=C\c2ccc(-c3ccc([N+](=O)[O-])cc3OC)o2)SC1=Nc1cccc(C(=O)O)c1 | 71.7
Cc1cc(/C=C2\C(=N)N3N=C(S(C)(=O)=O)SC3=NC2=O)c(C)n1Cc1ccccc1 | 53.4
COc1ccc(N=C2S/C(=C\c3ccc(OC(C)C(=O)O)c(OC)c3)C(=O)N2CCc2c[nH]c3ccccc23)cc1 (stereo not drawn) | 71.5
O=C(O)CCN1C(=O)/C(=C\c2cccc(OCC(=O)Nc3ccc(Cl)cc3)c2)SC1=S | 63.2
O=C1NC(=Nc2ccccc2Cl)S/C1=C\c1cccc([N+](=O)[O-])c1O | 64.5
O=C(O)COc1ccc(/C=C/C(=O)c2ccc(C3CCCCC3)cc2)cc1 | 58.9
CCS(=O)(=O)C1=NN2C(=N)/C(=C\c3ccc(OCCOc4cccc(OC)c4)c(OC)c3)C(=O)N=C2S1 | 68.3
Cc1ccc(-c2nn(-c3ccccc3)cc2/C=C2\SC(=S)N(CC(=O)O)C2=O)cc1 | 72.1

Structure (SMILES) | inhibition [%]
COc1cccc(NS(=O)(=O)c2ccc3c(c2)C2C=CCC2C(c2ccc(C(=O)O)cc2)N3)c1 (stereo not drawn) | 68.7
O=C(O)CCN1C(=O)/C(=C\c2ccc(OCc3ccccc3)c(OCc3ccccc3)c2)SC1=S | 92.7
N#Cc1c(-c2ccccc2)nc(SCC(=O)Nc2ccc(OC(F)(F)Cl)cc2)[nH]c1=O | 73.8
Cc1c(CCC(=O)O)c(=O)oc2c(C)c3occ(-c4ccc(Cl)cc4)c3cc12 | 62.5
COc1ccc(N=C2S/C(=C\c3ccc(OCC(=O)O)cc3)C(=O)N2CCc2c[nH]c3ccccc23)cc1 | 54.2
N#Cc1c(-c2cccs2)nc(SCc2ccc(Cl)cc2)[nH]c1=O | 72.9
CCCCCC(=O)Cc1cc(O)cc2c1C(=O)Oc1cc(O)c(C(=O)O)c(CCCCC)c1O2 | 83.3
CC(C)CCOc1ccc(/C=C2\CCn3c2nc2cc(C(=O)O)ccc2c3=O)cc1 | 81.1
COc1cc(/C=C2\C(=N)N3N=C(S(C)(=O)=O)SC3=NC2=O)cc(OC)c1OCCOc1ccccc1C | 72.6
CC1(c2ccccc2)CC(C)(C)N2C(=O)/C(=C3\SC(=S)NC3=O)c3cccc1c32 (stereo not drawn) | 72.9
O=C(O)C1Nc2ccc(Br)cc2C2C=CCC12 (stereo not drawn) | 58.1
O=C1NC(=O)/C(=C/c2ccc(-c3cc(C(=O)O)ccc3Cl)o2)S1 | 50.8
O=C(O)CSc1ncnc2c1sc1nc(-c3ccccc3)c3c(c12)CCC3 | 78.9
CCOc1cc(/C=C2\SC(=S)N(C(C(=O)O)c3ccccc3)C2=O)ccc1O (stereo not drawn) | 69.4
N#Cc1c(-c2ccccc2)nc(SCC(=O)N2c3ccccc3Sc3ccccc32)[nH]c1=O | 84.4
COc1ccc(OC)c(/C=C2\SC(=S)N(NS(=O)(=O)c3ccc(C)cc3)C2=O)c1 | 60.2
Cc1nn(CCc2nn[nH]n2)c2nc(-c3ccc(C4CCCCC4)cc3)cc(C(F)(F)F)c12 | 78.5
O=C(N/N=C/c1cc(Cl)cc([N+](=O)[O-])c1O)c1ccccc1NS(=O)(=O)c1cccs1 | 69
CC1=NN(c2ccccc2)C(=O)/C1=C/c1c(O)n(-c2ccc(F)c(Cl)c2)[nH]c1=O | 79.8
O=S(=O)(Nc1nc(-c2sccc2Cl)cs1)c1cc(Cl)ccc1Cl | 76.7
